{"source": "paper PMC4336329", "about": "(PLoS ONE, 2015)", "note": "In all, about 310,000 compounds went through this assay and about 14,000 (4.5%) showed an effect of 50% or more. Effects have a minus sign here. Some of the results follow.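 Also: peak tail current of the secondary pulse compared with the same well before compound.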"}
{"target": "human ether-à-go-go-related gene (hERG) potassium channel (human, UniProt Q12809)", "sequence (Q12809 whole entry, looked up)": "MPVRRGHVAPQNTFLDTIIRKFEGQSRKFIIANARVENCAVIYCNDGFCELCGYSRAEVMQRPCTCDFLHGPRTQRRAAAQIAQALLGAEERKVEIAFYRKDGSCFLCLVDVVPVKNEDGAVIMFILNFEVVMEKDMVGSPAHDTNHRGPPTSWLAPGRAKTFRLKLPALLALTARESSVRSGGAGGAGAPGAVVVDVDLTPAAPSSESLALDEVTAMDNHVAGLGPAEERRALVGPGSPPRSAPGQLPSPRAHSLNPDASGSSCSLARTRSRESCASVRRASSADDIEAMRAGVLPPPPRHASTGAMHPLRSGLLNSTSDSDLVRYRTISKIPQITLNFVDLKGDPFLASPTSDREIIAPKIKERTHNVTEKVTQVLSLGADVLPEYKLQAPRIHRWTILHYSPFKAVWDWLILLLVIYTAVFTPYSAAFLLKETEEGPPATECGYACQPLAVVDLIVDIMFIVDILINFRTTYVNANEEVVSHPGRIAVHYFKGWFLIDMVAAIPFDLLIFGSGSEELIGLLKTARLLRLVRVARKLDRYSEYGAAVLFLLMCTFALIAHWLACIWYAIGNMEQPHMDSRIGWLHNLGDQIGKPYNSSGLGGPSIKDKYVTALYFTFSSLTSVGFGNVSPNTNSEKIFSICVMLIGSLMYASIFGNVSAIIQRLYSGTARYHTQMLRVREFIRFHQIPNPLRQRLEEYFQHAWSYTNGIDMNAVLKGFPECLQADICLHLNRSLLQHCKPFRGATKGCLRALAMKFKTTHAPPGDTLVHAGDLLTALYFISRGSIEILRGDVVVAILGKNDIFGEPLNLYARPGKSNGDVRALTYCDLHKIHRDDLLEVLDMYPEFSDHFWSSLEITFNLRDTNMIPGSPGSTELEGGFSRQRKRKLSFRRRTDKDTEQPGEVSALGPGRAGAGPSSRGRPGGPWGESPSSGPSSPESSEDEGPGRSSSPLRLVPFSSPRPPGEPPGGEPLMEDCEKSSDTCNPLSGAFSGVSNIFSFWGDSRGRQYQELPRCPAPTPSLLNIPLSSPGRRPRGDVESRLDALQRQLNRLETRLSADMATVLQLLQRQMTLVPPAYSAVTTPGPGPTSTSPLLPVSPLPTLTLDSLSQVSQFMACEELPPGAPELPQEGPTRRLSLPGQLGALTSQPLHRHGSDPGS", "assay": "primary screen, population patch clamp on CHO cells stably expressing hERG", "units": {"hERG current change (%, negative = inhibition) at 10uM": "%"}}
{"smiles": "O=S(=O)(c1ccc(S(=O)(=O)N2CCN3CCCC3C2)cc1)N1CCCC1", "note": "(centres unmarked)", "hERG current change (%, negative = inhibition) at 10uM": -0.953}
{"smiles": "Cc1cccc(C)c1NC(=O)CNC(=O)C1CCCN(C(=O)c2ccc(Cl)cc2)C1", "note": "(centres unmarked)", "hERG current change (%, negative = inhibition) at 10uM": 4.54}
{"smiles": "O=C(O)c1ccc(S(=O)(=O)NCc2ccc3c(c2)OCO3)cc1", "hERG current change (%, negative = inhibition) at 10uM": 2.42}
{"smiles": "COc1cccc(SCc2noc(C(=O)NC(C)C)c2C(=O)NC(C)C)c1", "hERG current change (%, negative = inhibition) at 10uM": 2.02}
{"smiles": "COc1ccc(Nc2nnc(SCc3cn4c(C)cccc4n3)s2)cc1", "hERG current change (%, negative = inhibition) at 10uM": -52.2}
{"smiles": "CC(C)c1nc2cc(C(=O)NC(C)c3cnn(C)c3)ccc2o1", "note": "(centres unmarked)", "hERG current change (%, negative = inhibition) at 10uM": 13.7}
{"smiles": "COCCCNc1nc2c(c(=O)[nH]c(=O)n2C)n1CCCc1ccccc1", "hERG current change (%, negative = inhibition) at 10uM": -2.2}
{"smiles": "CCCCOC(=O)C1CCC[C@@H](C)N1.Cl", "note": "(some centres unmarked)", "hERG current change (%, negative = inhibition) at 10uM": -12.9}
{"smiles": "CCC(C)NC(=O)CSc1nc2cc(S(=O)(=O)N3CCOCC3)ccc2n1CC", "note": "(centres unmarked)", "hERG current change (%, negative = inhibition) at 10uM": 11}
{"smiles": "O=C(O)CCn1c(=S)n(CCC(=O)O)c2ccccc21", "hERG current change (%, negative = inhibition) at 10uM": -1.59}
{"smiles": "CCc1ccc(N(CC(=O)NC(C)(C)C)C(=O)CNC(=O)c2cccs2)cc1", "hERG current change (%, negative = inhibition) at 10uM": 15.5}
{"smiles": "CCN1C2OC3OC4C(OC3OC2N(CC)S1(=O)=O)N(CC)S(=O)(=O)N4CC", "note": "(centres unmarked)", "hERG current change (%, negative = inhibition) at 10uM": 9.26}
{"smiles": "CCN(CC)C(=O)CSc1nc2sc3c(c2c(=O)n1CCOC)CCC3", "hERG current change (%, negative = inhibition) at 10uM": -24.3}
{"smiles": "Cc1nccn1CCC(=O)Nc1ccc(Cl)cc1", "hERG current change (%, negative = inhibition) at 10uM": -15.1}
{"smiles": "COc1cccc(/C=N/N2CCN(c3ccc(Cl)cc3)CC2)c1OC", "hERG current change (%, negative = inhibition) at 10uM": 17.7}
{"smiles": "Cc1[nH]c(=S)sc1Cc1ccc(F)cc1", "hERG current change (%, negative = inhibition) at 10uM": 5.62}
{"smiles": "COc1ccc(COC(=O)NNC(=O)c2ccc(OC)cc2)cc1", "hERG current change (%, negative = inhibition) at 10uM": -20.5}
{"smiles": "COC(=O)CCN(c1ccccc1)S(=O)(=O)c1ccc(OC)cc1", "hERG current change (%, negative = inhibition) at 10uM": -6.28}
{"smiles": "Cc1ccc(N2CC(C(=O)N(C)CC(=O)Nc3ccc(Cl)c(C(F)(F)F)c3)CC2=O)cc1", "note": "(centres unmarked)", "hERG current change (%, negative = inhibition) at 10uM": -20.2}
{"smiles": "COc1ccc(NC(=O)CSc2nc3ccccc3c(=O)n2CCNC(C)=O)cc1", "hERG current change (%, negative = inhibition) at 10uM": -73.6}
{"smiles": "COc1ccc(F)cc1C(=O)C1CCCN(Cc2cn(C)c3ccccc23)C1", "note": "(centres unmarked)", "hERG current change (%, negative = inhibition) at 10uM": -39.5}
{"smiles": "COc1ccccc1-c1cc(C(=O)Nc2ccccc2SC)no1", "hERG current change (%, negative = inhibition) at 10uM": -5.04}
{"smiles": "COCCN(C(=O)CNC(=O)c1ccco1)C(C(=O)NC1CCCC1)c1ccccc1F", "note": "(centres unmarked)", "hERG current change (%, negative = inhibition) at 10uM": -32.3}
{"smiles": "COc1ccc(OC)c(NC(=O)C23CCC(C)(C(=O)C2)C3(C)C)c1", "note": "(centres unmarked)", "hERG current change (%, negative = inhibition) at 10uM": 14.2}
{"smiles": "NC(CS(=O)O)C(=O)O", "note": "(centres unmarked)", "hERG current change (%, negative = inhibition) at 10uM": 3.84}
{"smiles": "COC(=O)C1(C)NC(c2ccc(O)cc2)C2C(=O)N(c3ccc(C)cc3)C(=O)C21", "note": "(centres unmarked)", "hERG current change (%, negative = inhibition) at 10uM": 15.7}
{"smiles": "Cc1[nH]n(CCC#N)c(=O)c1CC(=O)N1CCN(c2ccccc2)CC1", "hERG current change (%, negative = inhibition) at 10uM": 2.62}
{"smiles": "CC(Oc1ccccc1)C(=O)NNS(=O)(=O)c1ccc([N+](=O)[O-])cc1", "note": "(centres unmarked)", "hERG current change (%, negative = inhibition) at 10uM": 13.4}
{"smiles": "C/C(Cl)=C\\Cn1c(N2CCCC2)nc2c1c(=O)n(C)c(=O)n2C", "hERG current change (%, negative = inhibition) at 10uM": 10.9}
{"smiles": "CC1CCC(N2CCN(C(=O)c3ccccc3F)CC2)CC1.O=C(O)C(=O)O", "note": "(centres unmarked)", "hERG current change (%, negative = inhibition) at 10uM": -2.63}
{"smiles": "c1ccc(-c2nc(N3CCOCC3)cc(N3CCOCC3)n2)cc1", "hERG current change (%, negative = inhibition) at 10uM": 4.47}
{"smiles": "C=CCn1c(=O)c2ccc(C(=O)NCc3ccccc3)cc2n(Cc2ccccc2Cl)c1=O", "hERG current change (%, negative = inhibition) at 10uM": 4.79}
{"smiles": "O=C(Cn1cnnn1)OCC(=O)c1ccc(Cl)s1", "hERG current change (%, negative = inhibition) at 10uM": 1.61}
{"smiles": "CN(CC(=O)O/N=C(\\N)c1ccccn1)S(=O)(=O)c1ccc(Br)cc1", "hERG current change (%, negative = inhibition) at 10uM": -11.2}
{"smiles": "COC(=O)c1ccc2c(C(C)(C)O)c(C(C)(C)O)[nH]c2c1", "hERG current change (%, negative = inhibition) at 10uM": 14.3}
{"smiles": "CCOC(=O)Cc1csc(NC(=S)NC(=O)c2ccccc2C)n1", "hERG current change (%, negative = inhibition) at 10uM": 2.37}
{"smiles": "CC(C)N(C(=S)Nc1cccc(C(F)(F)F)c1)C(C)c1ccccn1", "note": "(centres unmarked)", "hERG current change (%, negative = inhibition) at 10uM": -11.5}
{"smiles": "Cc1ccc(C)c(N2CCN(C(=O)c3cc4ccccn4n3)CC2)c1", "hERG current change (%, negative = inhibition) at 10uM": -39.5}
{"smiles": "COC(C[C@@H]1O[C@H]1C(=O)COCc1ccccc1)OC", "hERG current change (%, negative = inhibition) at 10uM": 12.1}
{"smiles": "S=C(Nc1ccc(Cl)cc1Cl)N1CCCC1", "hERG current change (%, negative = inhibition) at 10uM": 12.3}
{"smiles": "Cc1ccc(C)c(N2CCN(Cc3nnnn3C3CCCCC3)CC2)c1.Cl", "hERG current change (%, negative = inhibition) at 10uM": -4.45}
{"smiles": "Nn1c(SCc2ccc(C(=O)O)cc2)nnc1-c1ccc(Cl)cc1Cl", "hERG current change (%, negative = inhibition) at 10uM": 18.9}
{"smiles": "CC(C)N(C(=O)c1nn(C)c2c1CSc1ccccc1-2)C1CCCCC1", "hERG current change (%, negative = inhibition) at 10uM": 10.9}
{"smiles": "CCC(C)[C@H](NC(=O)[C@@H]1Cc2c([nH]c3ccccc23)C2c3ccccc3C(=O)N21)C(=O)NCC1CCCO1", "note": "(some centres unmarked)", "hERG current change (%, negative = inhibition) at 10uM": -13.4}
